One assay concerns the target T1, Mug20 (S. pombe) (UniProt Q9HGN4).
T1 sequence: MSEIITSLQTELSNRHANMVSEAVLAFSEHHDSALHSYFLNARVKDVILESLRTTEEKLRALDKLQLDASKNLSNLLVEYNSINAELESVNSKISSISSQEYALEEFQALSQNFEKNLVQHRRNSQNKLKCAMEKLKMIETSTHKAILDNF
Put plainly: two-hybrid; Matchmaker GAL4 Two-Hybrid System 3; pGBKT7 (BD) baits in one and pGADT7 (AD) preys in the other of S. cerevisiae Y187 and AH109, mated; spot tests of 1:10 dilution series on -Leu-Trp-His and -Leu-Trp-Ade media, growth read after 2-3 days; repeated three times.

For another assay, the target named is T2, Rec10 (S. pombe) (UniProt Q09823).
T2 sequence: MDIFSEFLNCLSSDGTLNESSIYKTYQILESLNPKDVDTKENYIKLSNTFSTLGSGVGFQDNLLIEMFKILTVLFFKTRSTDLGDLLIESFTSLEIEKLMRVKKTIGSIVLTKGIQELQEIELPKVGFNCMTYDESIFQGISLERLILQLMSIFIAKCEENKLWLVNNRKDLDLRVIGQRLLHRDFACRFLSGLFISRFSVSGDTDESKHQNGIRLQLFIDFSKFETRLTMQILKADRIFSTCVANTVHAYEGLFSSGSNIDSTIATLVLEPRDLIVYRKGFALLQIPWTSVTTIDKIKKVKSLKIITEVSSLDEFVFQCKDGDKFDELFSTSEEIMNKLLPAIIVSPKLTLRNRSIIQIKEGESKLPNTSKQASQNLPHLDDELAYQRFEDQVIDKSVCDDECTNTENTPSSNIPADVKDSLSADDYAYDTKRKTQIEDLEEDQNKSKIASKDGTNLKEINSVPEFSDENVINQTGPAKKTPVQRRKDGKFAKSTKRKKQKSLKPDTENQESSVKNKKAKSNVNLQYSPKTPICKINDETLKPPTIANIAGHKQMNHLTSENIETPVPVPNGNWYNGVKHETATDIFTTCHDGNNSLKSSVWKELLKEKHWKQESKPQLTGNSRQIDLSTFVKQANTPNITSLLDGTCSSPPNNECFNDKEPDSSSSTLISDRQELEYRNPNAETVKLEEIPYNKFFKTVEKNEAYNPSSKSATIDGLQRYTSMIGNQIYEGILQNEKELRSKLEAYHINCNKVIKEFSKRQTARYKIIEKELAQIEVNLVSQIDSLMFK
The description is as above.

No constants are given. Whether binding was seen depends on the method and setting. Some results given as binding are weak or reduced against the parent protein; the word gives no strength.

B1: Mug20 (protein, UniProt Q9HGN4 1-151)
chain: MSEIITSLQTELSNRHANMVSEAVLAFSEHHDSALHSYFLNARVKDVILESLRTTEEKLRALDKLQLDASKNLSNLLVEYNSINAELESVNSKISSISSQEYALEEFQALSQNFEKNLVQHRRNSQNKLKCAMEKLKMIETSTHKAILDNF
Turning to B1, the binding entry in the assay with Mug20 (S. pombe) was “binds”.

B2: Rec25 (protein, UniProt Q9C115 1-150)
chain: MVKGSVTNTSSIVKQFEKSSIKHETETIAFAKQFINECIREFQEQKDNVVEEKNTDQNHQNQNQEGVIIEIYQELLQKVDLISSELRQNLSSLQLRFQEVERDTGHDLLNVLNSLSQEARLAQKVLEEDGSQQGSQLIQGLLTCFQSTGN
Regarding B2, the binding result with Mug20 (S. pombe) and with Rec10 (S. pombe) was “binds” each time.

B3: Rec10 (protein, UniProt Q09823 1-791)
chain: MDIFSEFLNCLSSDGTLNESSIYKTYQILESLNPKDVDTKENYIKLSNTFSTLGSGVGFQDNLLIEMFKILTVLFFKTRSTDLGDLLIESFTSLEIEKLMRVKKTIGSIVLTKGIQELQEIELPKVGFNCMTYDESIFQGISLERLILQLMSIFIAKCEENKLWLVNNRKDLDLRVIGQRLLHRDFACRFLSGLFISRFSVSGDTDESKHQNGIRLQLFIDFSKFETRLTMQILKADRIFSTCVANTVHAYEGLFSSGSNIDSTIATLVLEPRDLIVYRKGFALLQIPWTSVTTIDKIKKVKSLKIITEVSSLDEFVFQCKDGDKFDELFSTSEEIMNKLLPAIIVSPKLTLRNRSIIQIKEGESKLPNTSKQASQNLPHLDDELAYQRFEDQVIDKSVCDDECTNTENTPSSNIPADVKDSLSADDYAYDTKRKTQIEDLEEDQNKSKIASKDGTNLKEINSVPEFSDENVINQTGPAKKTPVQRRKDGKFAKSTKRKKQKSLKPDTENQESSVKNKKAKSNVNLQYSPKTPICKINDETLKPPTIANIAGHKQMNHLTSENIETPVPVPNGNWYNGVKHETATDIFTTCHDGNNSLKSSVWKELLKEKHWKQESKPQLTGNSRQIDLSTFVKQANTPNITSLLDGTCSSPPNNECFNDKEPDSSSSTLISDRQELEYRNPNAETVKLEEIPYNKFFKTVEKNEAYNPSSKSATIDGLQRYTSMIGNQIYEGILQNEKELRSKLEAYHINCNKVIKEFSKRQTARYKIIEKELAQIEVNLVSQIDSLMFK
Turning to B3, the binding result with Mug20 (S. pombe) is listed as “no binding”.

B4: Hop1 (protein, UniProt Q9P7P2 1-528)
chain: MNSYKEEILQTKSDFTLKNLIFFAISTLCYKRALFNENCYKKVNFEIEHFKGADFDCQLKPTVVSLQAGVDKEADSFLEMMKTYIFSLVSMKVPFTVYLIISSQCKSILEDDAVEKEIFSFTINPGSEEKICCESFVSYQRSERFVIKLFLSGNVKTECKDEEKVVQIITKMERFQLSKGEATKAGVFLNTVETKDCMSWLNRGEFKDIVSFYESNNGIAISHCSHAFVPISTEKIMINKESSLFDSQEKIDSQLEKFLQPLKYDEIGSTQILDEQSVEKSLSQGKCEKMQNESRGLREIKNNNPCEEVKKSNWLKKNISGSDKVDKAEKKKALLNCECGDSTEDSEMFQCERCDGWVHCACYGFESDSDPRQPNQLLCYTCLLVDSESSLYDRMTMLVAYRRAIRCIWASEYQGFQKLAARLNCSYADAKRIEERLVNENIIYKEKKRKWIYFTNKSPEMVSYLREKYFTPSRWISHLNFQNYRQENQRVNMRSFLRPERMEVIERPKKVSKTSNTKETDTMKPLRI
B4: the binding entry with Rec10 (S. pombe) was “binds”.

Source of the values: publication PMC3310140.
